According to the supplement of paper PMC12632987:
Whole data set: some 4,500 sequences, median “median log2 fold change of GCK-ALFA target abundance (FLAG IP / Myc IP barcode read proportion)” near 0.078, cut for the lowest 2% near -0.6. The list shows a part of the results.

B1: GBRAP_128_3158 (protein)
chain: SVEEVKEKTRELLEKIKESDDETARELAEELFALIGTLSKEEREAAVEVILERLPELSEEKLEILADVAREMRPKYDEYTANLIAEVEVEALNEAEELEE
B2: GBRAP_55_6432 (protein)
chain: SEDDEDRRLAAETLLELAVAFADDPEKLAAYVDRLMEVAKDAPVTATASPLPREEAERIYEKLKAELEKAAKEHGLEVKVELVEDPETGTASIVVTITPK
B3: GBRAP_11_2933 (protein)
chain: SKELIKKAAEAAKKAKKIVEEAIKKGYLTEEEKKEVKELLEKAKELLKKLNTEEAKALQKDVEVALEILEEVEKDPEFYLKLLKATLESIELELEELLEE
B4: GBRAP_35_5524 (protein)
chain: NSDETAAEMLVATIDDLTLAVPDLPLDTLVAITNQLARSAEELVEDLKDKPESLKKLLESMKKLLEAIKRHHADSPEAKAAAARVEKVIKKIEEAIKKAE
B5: GBRAP_128_3197 (protein)
chain: VSAAAVAALRALAAAVIATKSDAAIAAFAAAVAAALAAGEIDIDTLEEIVAALGEGLDADTLAKVADALDAALADVGAEARATALGTLGEKIWEKEEEAE
B6: GBRAP_160_4236 (protein)
chain: SEKLKKLEEEINEEFELLLEVLLESPKSQWEAYARAFAGDIVQIVIENEEVSDEAEEKVAEIADEMVEDLVAAKDASPEELKKLLEEYAKKIVETVKKEL
B7: GBRAP_52_6271 (protein)
chain: MEEEAEKLAKEALEVVLNKSKEEIEKFAKELVENNSQELIALTLEIVVKLSEELDLESIEKVLDFFLILEDEAEEAGKDTLPAEDAAARLAGLALEKRAE
B8: GBRAP_128_3371 (protein)
chain: IDEEKLARVRELAEAMAKADVETARELARELVELLATLSPEERKAAVEIIKKELPKLTAEKLDVLADVIRELRPTVDPETAALLNELEVEALNEALEKEE
B9: GBRAP_48_5836 (protein)
chain: EEERLEKAIEESLKVIKETAELLKEAKEEGLSEAAFEAILIDAAEELKEIWDKYLGLGEAWDALPLEERLAIVRELVETYEKEGEEAARKKIREVIEELK
B10: GBRAP_11_2778 (protein)
chain: KKEKLEKAIELAKKLAEAIKKLLEEGVDNEELRKEAEKLLEELEKLIKENADKDLQKLAEIAKEEWKEALENPETAVEHLKNMLAAVETLEGQLLLELEE
B11: GBRAP_52_6021 (protein)
chain: MEARLQAAVRELLALVRAGDEDAARAAARALVASLNEEELKLLVDEVAALAAEAAPEDADAVWRLAEIIAEALEEAGVDEALADDLLARTAAALHEALQR
B12: GBRAP_80_6773 (protein)
chain: ALKEAEKAIEEVEKLDPELAKELRKILEKLLKKGASEETLKAFAELAAAIAEALKLGLKETAEEAVKEAKEAAELEDEEEITAEFRGIAGEVLMEVEEAE
B13: GBRAP_128_3288 (protein)
chain: APEELLEEVRELIERIKNSDAAEARAIAEELARLMGEVSVEEAEAIAEIIRELLPELSAEQLEILADVLDAAMPEMDPEKAAIAADVASDALLEAEELEE
B14: GBRAP_43_5776 (protein)
chain: SKEIVEGALDTAKLMAENPEIPDDQKVKAIKAAFDLAADEGYVDEKEVKEVIDAANASLSAEALEELAKHLEELAKKYPEFAKVFKAARKEVEAAIEKKR
B15: GBRAP_137_3683 (protein)
chain: KTLKATIKRIDGRTYVLIESDDESLAEELLDAVLDALDELGLKATVASLVENGKVYIEIDFPEDVTKEQVLALLKLVAERLGVDLVVKDEDTGETLEYKA
B16: GBRAP_78_6720 (protein)
chain: ELEEELEKAIEVLNKAAKAALSLPLEESNELLDLLVEATNLLMEILEENLPKEEAIKKLKEAIELLEKALKLLGGKYPELKKLVEKAKELAEKALELAKK
B17: GBRAP_45_5806 (protein)
chain: SAAKQAALDAALAALDAAIAEAQKLAAKDPERWGKYLARLEELRARLKAHADDAAALEEIERELEALLKEALADPNATAELLDALLDAANAVAEAAELLK
B18: GBRAP_125_3095 (protein)
chain: EMEEILEALKLLAKALGFSEEEAEELAELAAKSSIKQTLYALFKAEGYEELAELVEKLTEEEAKELLLELAKWLKENPNATKEEVVKKAKEIAEKLLKKS
B19: GBRAP_184_5232 (protein)
chain: KVLEREIEAENAEELAAQLAAVAAEAAAAGARVRLILRVKELTREKAEVIAARLREMAAAGLVDLVEVESTTRIEEENIDLLVEAAREAGVRLVLALEEE

Target: GABARAP, O95166
Sequence (O95166 whole entry, the tested form may be a part): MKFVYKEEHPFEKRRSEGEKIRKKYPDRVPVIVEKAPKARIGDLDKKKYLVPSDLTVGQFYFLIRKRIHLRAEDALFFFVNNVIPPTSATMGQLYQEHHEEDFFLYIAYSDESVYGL
Experiment: median log2 fold change of GCK-ALFA target abundance (FLAG IP / Myc IP barcode read proportion) (log2 ratio); each designed protein is fused to an ALFA-tag nanobody in HEK293 cells to bring the named protein to FLAG-tagged glucokinase (GCK); Myc marks an untargeted standard; higher = target protein stabilised (more abundant)
Details: target protein: 3xFLAG-MCP-GCK-ALFA reporter; HEK293 landing pad (RPLP)
Experimental: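 LABEL-seq trans screen in HEK293 landing-pad cells. Each de novo designed 100-aa effector handle, binding the indicated effector (E3 ligase, DUB or autophagy protein), is fused to a constant NbALFA target handle and induced with 2 ug/mL doxycycline. A FLAG-MCP-GCK-ALFA target and a Myc-MCP standard reporter were transfected, and after 48 h circRNA barcodes were recovered by anti-FLAG and anti-Myc IP and sequenced. The value is the median across barcodes (at least 3 per design) of log2(FLAG/Myc read-proportion ratio), with the two transfection replicates pooled. Negative values mean degradation and positive values mean stabilisation of the target.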

| Binder | median log2 fold change |
| --- | --- |
| B1 | -0.107 |
| B2 | 0.231 |
| B3 | 0.235 |
| B4 | 0.0758 |
| B5 | 0.0303 |
| B6 | -0.0584 |
| B7 | 0.132 |
| B8 | 0.0844 |
| B9 | 0.414 |
| B10 | 0.252 |
| B11 | 0.045 |
| B12 | 0.227 |
| B13 | 0.138 |
| B14 | 0.272 |
| B15 | -0.135 |
| B16 | 0.174 |
| B17 | 0.259 |
| B18 | 0.259 |
| B19 | -0.176 |
